In PubChem BioAssay AID924 (National Center for Advancing Translational Sciences (NCATS), 2007):
Screen size: about 130,000 compounds; about 1,200 (0.92%) were called active. This list was built around the results that the source calls inconclusive (neither active nor inactive); the mix of calls is not that of the screen. Calls come from the whole dose curve; as a rule, active = well fitted cell-killing curve with a large enough effect; inconclusive = small, poorly fitted or top-dose-only effect; inactive = no such curve, though single readings can be large or run the other way. Potencies of inconclusive entries are doubtful fits and often do not repeat.
Potency is the fitted concentration of half-maximal effect; tags give direction and shape of the fitted curve.

Assay: qHTS Screen for Compounds that Selectively Target Cancer Cells with p53 Mutations: Cytotoxicity of p53ts Cells at the Permissive Temperature; note: nearly all actives have a fitted effect of over 55% in size;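 for activity change, negative = cytotoxicity: 0% = DMSO and -100% = full killing by reference compound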
Settings: H1299-p53A138V at 32C, ATP luminescence viability, 24 h; activity change, negative = cytotoxicity: at 46.1 µM (top of the series)
In short: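 Viability by ATPlite luminescence after 24 h compound treatment (up to 46 uM) at the permissive 32C. Cells are H1299 carrying p53 A138V. Scale runs from DMSO basal to 100 uM tamoxifen as full kill; AC50 from Hill fits.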
In the case of `Cc1ccccc1OCC(=O)Nc1ccc2nc(SCC(=O)N3CCCC3)sc2c1`, the Potency is reported as inconclusive: 31.6 µM [cytotoxic, single point].
With `O=C(O)c1ccc(Cl)c(S(=O)(=O)Nc2ccccc2)c1` the Potency was “inactive”.
In the case of `O=C(Nc1nc2ccccc2[nH]1)c1ccc(F)cc1`, the Potency is reported as active: 3.16 µM.
For `CCN(c1ccccc1)S(=O)(=O)c1ccc(NC(=O)c2nc(S(C)(=O)=O)ncc2Cl)cc1`, the Potency was inconclusive: 31.6 µM [cytotoxic, single point].
In the case of `CCc1nc2nc(C)cc(Nc3cc(C)ccc3C)n2n1`, the Potency is reported as “inactive”.
With `Clc1ccc(-c2cn3cc(Cc4ccccc4)sc3n2)cc1` the Potency was inconclusive: 5.01 µM [cytotoxic, partial curve].
For `COc1ccc2nc(NC(=O)c3cnccn3)sc2c1`, the Potency was inconclusive: 10 µM [cytotoxic, partial curve].
With `FC(F)(F)c1cc(CO[C@H]2CCCN[C@H]2c2ccccc2)cc(C(F)(F)F)c1` the Potency was inconclusive: 31.6 µM [cytotoxic, single point].
With `COc1ccc(NC(=O)N2CCN(c3nc(-c4cccc(OC)c4)cs3)CC2)cc1` the Potency was inconclusive: 15.8 µM [cytotoxic, single point].
In the case of `COc1ccc(CCNc2oc(COc3ccc(Cl)cc3)nc2C#N)cc1OC`, the Potency is reported as active: 22.4 µM.
For `Cc1ccc(NC(=O)Nc2cccs2)cc1`, the Potency was inconclusive: 12.6 µM [cytotoxic, single point].
In the case of `O=C(NC1CCCC1)c1cc(-c2cccs2)on1`, the Potency is reported as inconclusive: 31.6 µM [cytotoxic, single point].
With `CCCOc1ccc(C(=O)C(CN2CCOCC2)c2ccccc2)cc1` (stereo unspecified) the Potency was inconclusive: 11.2 µM [cytotoxic, single point].
In the case of `CCOC(=O)c1c(C)oc2c(Cl)cc(NS(=O)(=O)c3ccc(Cl)c(C)c3)cc12`, the Potency is reported as inconclusive: 31.6 µM [cytotoxic, single point].
In the case of `Cc1cc(C(=O)Nc2ccccn2)cs1`, the Potency is reported as inconclusive: 10 µM [cytotoxic, partial curve].
For `COC(=O)CC1C(=O)NCCN1C(=O)CSc1nnc(Nc2ccc(OC)cc2)s1` (stereo unspecified), the Potency was inconclusive: 12.6 µM [cytotoxic, partial curve].
In the case of `COC(=O)c1cc(NC(=O)CN(c2ccccc2)S(=O)(=O)N(C)C)ccc1Cl`, the Potency is reported as “inactive”.
For `Cn1cc(/C=N/n2cnc3scc(-c4ccccc4)c3c2=O)c2ccccc21`, the Potency was “inactive”.
In the case of `Cc1cc(C(=O)Nc2ccc3c(c2)OCO3)cs1`, the Potency is reported as active: 12.6 µM.
In the case of `COC(=O)c1ccc(Cn2c(SCc3cccc(C)c3)nc3ccncc32)cc1`, the Potency is reported as active: 25.1 µM.
For `COc1cc(C2CC(=O)Nc3c2c(=O)n(C)c(=O)n3C)cc(OC)c1OC` (stereo unspecified), the Potency was “inactive”.
For `COc1ccc2c(c1OC)C(C1c3c(cc4c(c3OC)OCO4)CCN1C)OC2=O` (stereo unspecified), the Potency was inconclusive: 0.398 µM [cytotoxic, full curve].
In the case of `CCOc1ccc(-n2c(C)nc3cc(C(=O)NCc4ccco4)ccc32)cc1`, the Potency is reported as inconclusive: 0.199 µM [cytotoxic, full curve, poor fit].
For `COc1ccc(CNc2nc3c(-c4cccc(F)c4)nnn3c3ccccc23)cc1`, the Potency was inconclusive: 15.8 µM [cytotoxic, single point].
In the case of `CCCS(=O)(=O)c1ncc(Cl)c(C(=O)Nc2c(C(=O)Nc3ccccc3)oc3ccccc23)n1`, the Potency is reported as inconclusive: 25.1 µM [cytotoxic, single point].
For `Cc1ccccc1OCCCCn1c(CCNC(=O)C(C)(C)C)nc2ccccc21`, the Potency was “inactive”.
With `Cc1ccc2nc(-c3cccc(NC(=O)c4ccc5c(c4)OCCO5)c3)oc2c1` the Potency was inconclusive: 12.6 µM [cytotoxic, partial curve].
For `O=C(c1cc2c(s1)CCCCC2)N1CCN(c2ncccn2)CC1`, the Potency was inconclusive: 15.8 µM [cytotoxic, partial curve].
In the case of `CC1(C)CC(=O)c2c(oc3cc4c(cc23)OCO4)C1`, the Potency is reported as “inactive”.
For `Cc1ccc(-c2nc(-c3cc4cccc(OCc5ccccc5F)c4oc3=O)no2)cc1`, the Potency was inconclusive: 31.6 µM [cytotoxic, single point].
For `COc1ccc(NC(=O)c2csnn2)cc1`, the Potency was inconclusive: 20 µM [cytotoxic, partial curve].
With `Cc1ccc(-c2cc3nc4c(c(=O)n3[nH]2)CCCC4)cc1` the Potency was inconclusive: 5.01 µM [cytotoxic, full curve].
In the case of `CCOc1ccc(-c2n[nH]c(C)c2Oc2ccc(OC)cc2)c(O)c1`, the Potency is reported as inconclusive: 31.6 µM [cytotoxic, single point].
In the case of `CCCCCCCCCCCCCCC1CO1` (stereo unspecified), the activity change, negative = cytotoxicity is reported as inactive: 4.9% [at 1.84 µM].
With `CCN1CCN(c2cc(C)c3cc(NC(=O)/C=C/c4ccc(C)cc4)ccc3n2)CC1` the Potency was inconclusive: 20 µM [cytotoxic, single point].
With `Nc1cccc(C(=O)Nc2ccc3nc(-c4cccnc4)[nH]c3c2)c1` the Potency was inconclusive: 31.6 µM [cytotoxic, single point].
With `CN(C)c1ccc(NC(=O)c2cccc(N3C(=O)CCC3=O)c2)cc1` the Potency was inconclusive: 10 µM [cytotoxic, partial curve].
For `Cc1nc(Nc2nc(-c3ccccc3)cc(=O)[nH]2)nc2ccccc12`, the Potency was “inactive”.
In the case of `NCCc1nnc(SCc2c(F)cccc2Cl)o1`, the Potency is reported as “inactive”.
In the case of `Cc1cccc(C(=O)Nc2ccc(C(=O)OCc3cc(=O)n4c(C)csc4n3)cc2)c1`, the Potency is reported as inconclusive: 25.1 µM [cytotoxic, single point].
In the case of `COc1cc(=O)[nH]c(SCc2c(F)c(F)c(F)c(F)c2F)n1`, the Potency is reported as “inactive”.
For `Cc1ccc(C(=O)Nc2sc3c(c2C(=O)O)CCCCC3)o1`, the Potency was active: 7.94 µM.
For `COc1cccc(CSc2nc3n(n2)C(CC(C)C)C(C(=O)Nc2ccccc2OC)=C(C)N3)c1` (stereo unspecified), the Potency was “inactive”.
With `CC(OC(=O)c1cc(=O)[nH]c2ccccc12)c1ccccc1` (stereo unspecified) the Potency was inconclusive: 31.6 µM [cytotoxic, single point].
For `CCOCCCN1C(=O)c2[nH]nc(-c3ccccc3O)c2C1c1ccc(CC)cc1` (stereo unspecified), the Potency was “inactive”.
For `COc1ccccc1N1C(=O)N(C(C)=O)C2C1Nc1ccccc1N2C` (stereo unspecified), the Potency was inconclusive: 20 µM [cytotoxic, single point].
